Data as given in PubChem BioAssay AID1671188 (National Center for Advancing Translational Sciences (NCATS), 2021).
Values joined by “and” are separate entries in the source; they are usually repeats but may differ in a detail not shown here. Equal values may be shown once. Among all 100,000 compounds or so, about 250 (0.25%) were called active. Inconclusive results, whose numbers are uncertain, are shown with a selection of clear calls. Calls come from the whole dose curve; as a rule, active = well fitted inhibition curve with a large enough effect; inconclusive = small, poorly fitted or top-dose-only effect; inactive = flat fitted curve, though single readings scatter. A potency beside an inconclusive call is a rough fit, not a confirmed value.

Biological target: Alanine aminotransferase 2 (Homo sapiens) (UniProt Q8TD30)
Test: Primary qHTS assay for inhibitors of Glutamate pyruvate transaminase 2 (GPT2); note: nearly all actives have a fitted effect of over 60% in size
Conditions: Recombinant GPT2, coupled pyruvate oxidase/HRP Amplex Red fluorescence; activity change, negative = inhibition: at 57.7 µM (top of the series) unless noted; series mostly up to 57.7 µM
Outline: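 Recombinant GPT2 (10ng/uL) with 250uM a-KG and 2mM L-alanine, 30 min at room temperature, in HEPES pH 7.5 buffer. Pyruvate detected by pyruvate oxidase/HRP/Amplex Red fluorescence after 30 min in the dark; AOA (50uM) as positive control.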
% is set by controls: 0 for no effect and ±100 for the full control effect; potency is the fitted concentration of half-maximal effect; tags give direction and shape of the fitted curve.

UniProt Q8TD30, sequence (Q8TD30 whole entry, looked up): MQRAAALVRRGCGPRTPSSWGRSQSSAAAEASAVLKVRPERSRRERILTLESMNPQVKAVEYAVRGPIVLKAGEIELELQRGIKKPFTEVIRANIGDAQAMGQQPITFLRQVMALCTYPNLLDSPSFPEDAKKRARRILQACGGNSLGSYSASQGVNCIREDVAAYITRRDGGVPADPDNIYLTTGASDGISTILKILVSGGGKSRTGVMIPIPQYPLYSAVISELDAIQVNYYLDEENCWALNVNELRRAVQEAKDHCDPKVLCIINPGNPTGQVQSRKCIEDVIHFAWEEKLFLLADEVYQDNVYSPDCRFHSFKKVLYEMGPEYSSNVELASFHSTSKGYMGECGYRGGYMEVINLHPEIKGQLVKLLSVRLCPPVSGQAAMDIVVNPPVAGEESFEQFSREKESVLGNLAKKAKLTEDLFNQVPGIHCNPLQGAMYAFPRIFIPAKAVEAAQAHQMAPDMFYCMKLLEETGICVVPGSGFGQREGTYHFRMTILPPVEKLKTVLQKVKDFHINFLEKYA

Row | SMILES | activity change, negative = inhibition | Potency | outcome
1 | C[C@@H](NS(=O)(=O)c1ccc(Cl)cc1)c1onc(-c2ccc(F)cc2)c1C(=O)O | inactive: -7.13% [at 88.5 µM] | – | –
2 | COc1ccc(Cn2ccc3ccc(C(=O)NO)cc32)cc1 | – | inconclusive: 43.2 µM [inhibitor, single point] and inconclusive: 28.2 µM [inhibitor, partial curve, poor fit] | –
3 | Cc1nn(CCC#N)c(C)c1[C@@H]1C=C[C@@H](NC(=O)NC(C)C)C1 | – | inconclusive: 56.2 µM [inhibitor, single point] | –
4 | COCCN1CCCCCC(O)c2cc(C(=O)NCCCN(C)C)ccc21 (stereo not drawn) | – | inconclusive: 12.6 µM [inhibitor, partial curve] | –
5 | COc1cccc(-c2ccc(CN3CCCC3C(=O)NCc3ccccc3)cc2)c1 (stereo not drawn) | – | inconclusive: 7.08 µM [inhibitor, single point] | –
6 | O=C(c1ccccc1F)N1C[C@@H](COCC2CC2)[C@H](c2ccccn2)C1 | inactive: -1.73% | – | –
7 | COc1ccc([C@H](Cc2ccncc2)c2ccccc2)cc1OC1CCCC1 | inactive: 0.567% | – | –
8 | COc1cccc(CNC(=O)C2CCCN2C(=O)c2cccc(-c3ccccn3)c2)c1 (stereo not drawn) | inactive: -6.36% | – | –
9 | CC(C)CC(=O)N1CCC(c2noc(-c3ccncc3)n2)C1 (stereo not drawn) | inactive: -14.1% | – | –
10 | CC1(CNc2ccccc2)COc2ccc(C(=O)NCCc3cnc[nH]3)cc2N1 (stereo not drawn) | – | – | inactive [at 88.5 µM]
11 | Cc1cccc(CN2CCCC3(CCN(C(=O)Cc4cccnc4)C3)C2=O)c1 (stereo not drawn) | – | inconclusive: 39.8 µM [inhibitor, single point] | –
12 | CC1(C)CCC[C@@]2(C)C1[C@H](OC(=O)/C=C/C=C/C(=O)O)C=C1COC(=O)[C@@]12O (stereo partly drawn) | – | inconclusive: 1.26 µM [inhibitor, partial curve, poor fit] | –
13 | CCc1ccc(CN2CCCC(CNC(=O)c3cccc(OC)c3OC)C2)o1 (stereo not drawn) | – | inconclusive: 31.6 µM [inhibitor, single point] | –
14 | CN1C(=O)N(CCc2ccccc2)C(=O)C12CCN(Cc1cccn1-c1ccccn1)CC2 | – | inconclusive: 39.8 µM [inhibitor, single point] | –
15 | COC1CN(c2cccc(F)c2)C12CCN(C(=O)C1(c3ccccc3)CC1)CC2 (stereo not drawn) | inactive: -16.2% | – | –
16 | COc1cccc(CCC(=O)N2CCCN(c3cc(-c4ccc(C)c(C)c4)[nH]n3)CC2)c1 | – | inconclusive: 39.8 µM [inhibitor, single point] | –
17 | O=C(NCc1ccccc1Cl)c1ccc(CN2C(=O)NC3(CCOCC3)C2=O)cc1 | – | – | inactive
18 | CCC(=O)Nc1ccc(O)cc1 | – | inconclusive: 31.6 µM [inhibitor, partial curve, poor fit] | –
19 | CN1CCN(C2Cc3ccccc3Sc3ccc(Cl)cc32)CC1 (stereo not drawn) | – | inconclusive: 3.98 µM [inhibitor, partial curve, poor fit] | –
20 | COc1ccccc1OC1(C(=O)O)CCN(c2cc(C)nc(N)n2)CC1 | inactive: 0.262% | – | –
21 | COc1ccc(-c2cc(C[C@@H]3CC[C@H](O)[C@@H](CN(Cc4cccc(OC)c4)Cc4cccc(OC)c4)O3)no2)cc1 | – | inconclusive: 7.08 µM [inhibitor, single point] | –
22 | Cc1ccc(F)c(OCC(=O)c2ccc3c(c2)N(CCCC(=O)NC2CC2)C(=O)CO3)c1 | – | inconclusive: 2.82 µM [inhibitor, partial curve, poor fit] | –
23 | CC(C)(Oc1nn(Cc2cccc(Cl)c2)c2ccccc12)C(=O)NCCCN1CCCC1=O | inactive: -6.66% | – | –

Row | SMILES | activity change, negative = inhibition | Potency | outcome
24 | COc1ccc(-c2ccc3nnc(CNC(=O)c4ccc(C)c(C)c4)n3n2)cc1 | – | inconclusive: 39.8 µM [inhibitor, single point] | –
25 | Cn1ncc2c(N[C@@H](Cc3ccccc3)C(N)=O)nc(-c3ccncc3)nc21 | – | inconclusive: 8.91 µM [inhibitor, single point] | –
26 | O=[N+]([O-])c1cccc(-c2noc([C@@H]3C[C@@H](O)CN3Cc3cccc(OC(F)(F)F)c3)n2)c1 | – | inconclusive: 6.31 µM [inhibitor, single point] | –
27 | O=C(C1CC1)N1CCCN(c2ccnc3ccnn23)CC1 | – | – | inactive [at 88.5 µM]
28 | O=C(Cn1nnnc1CN1CCOCC1)N1CCCC1c1ccc(F)cc1 (stereo not drawn) | – | inconclusive: 6.31 µM [inhibitor, single point] | –
29 | O=C(NCc1ccc(F)c(F)c1)c1ccc2nc(-c3cccnc3)oc2c1 | inactive: -8.7% [at 88.5 µM] | – | –
30 | O=C(c1cc(F)ccc1F)N1CCC(OCCOc2ccc(F)cc2)CC1 | – | – | inactive
31 | Cc1cccc(NC(=O)N2CC(Oc3ccccc3-c3noc(C)n3)C2)c1 | – | inconclusive: 39.8 µM [inhibitor, single point] | –
32 | O=C(O)C[C@@H]1CCN(C(=O)COc2ccccc2)C[C@@H]1CCN1CCCCC1 | inactive: -19.3% [at 88.5 µM] | – | –
33 | CN1CCN(C(=O)c2ccc3oc(-c4ccncc4Cl)nc3c2)CC1 | inactive: 0.757% | – | –
34 | CC(C)N1CCN(C2CCOC3(CCN(C(=O)Nc4ccccc4F)CC3)C2)CC1 (stereo not drawn) | inactive: -10.4% | – | –
35 | O=C(Nc1ccc2c(N3CCCCC3)ncnc2c1)c1ccc(F)cc1F | inactive: -5.39% | – | –
36 | Cc1ncc2c(c1CNC(=O)C1CCc3ccccc3C1)CCNC2 (stereo not drawn) | – | inconclusive: 7.08 µM [inhibitor, single point] | –
37 | Cn1ccc(NC(=O)c2ccc3c(c2)C2(CCN(CC4CC4)C2)CN3Cc2ccccc2)n1 (stereo not drawn) | inactive: 4.69% | – | –
38 | COc1ccccc1-c1cccc(CN2CCCC(C(=O)NC3CCOC3)C2)c1 (stereo not drawn) | – | – | inactive
39 | Cc1c(C(=O)N2CC[C@@](O)(C3CCOCC3)[C@H](C)C2)n(C)c2c(C)cccc12 | – | inconclusive: 39.8 µM [inhibitor, single point] | –
40 | COc1ccc(C(=O)NC2CCN(c3cc(-c4ccc(F)cc4)[nH]n3)C2)c(OC)c1 (stereo not drawn) | – | inconclusive: 14.1 µM [inhibitor, partial curve, poor fit] | –
41 | CN1CCC(NC[C@H]2O[C@@H](CO)[C@@H](O)[C@@H]2N(C)Cc2ccccc2)CC1 | – | inconclusive: 3.55 µM [inhibitor, single point] | –
42 | Cc1ccc(NC(=O)Cn2nc3c(cc2=O)CCCCC3)c(Cl)c1 | – | inconclusive: 8.91 µM [inhibitor, single point] | –
43 | CC(C)CNC(=O)N1C[C@@H](Oc2cccnc2)C[C@H]1C(=O)N1CCOCC1 | – | inconclusive: 39.8 µM [inhibitor, single point] | –
44 | COC(=O)c1ccc2nc(C[C@@H]3C[C@@H](C(C)C)[C@H](CNC(=O)C4CCCCC4)C=C3C)[nH]c2c1 | inactive: -3.47% | – | –
45 | CC(=O)N1CC[C@H](c2nc3ccc(C(F)(F)F)cc3[nH]2)C1 | inactive: -10.7% [at 88.5 µM] | – | –
46 | O=C(CCc1ccco1)N1CCC(C2CCN(Cc3cccc(F)c3F)CC2)C1 (stereo not drawn) | – | inconclusive: 39.8 µM [inhibitor, single point] | –

Row | SMILES | activity change, negative = inhibition | Potency | outcome
47 | Cc1noc(C2CC3(CCN(C(=O)c4cccs4)CC3)CN2C)n1 (stereo not drawn) | inactive: -4.79% | – | –
48 | O=C(COc1ccccc1)Nc1cnc(-c2cccc(Cl)c2)nc1 | – | inconclusive: 7.08 µM [inhibitor, single point] | –
49 | Cc1cc(C)n2ncc(C(=O)N3CCC(c4[nH]ncc4-c4ccccc4)CC3)c2n1 | – | inconclusive: 39.8 µM [inhibitor, single point] | –
50 | OC(c1nc(Nc2ccc(N3CCOCC3)cc2)n[nH]1)C1CC1 (stereo not drawn) | – | inconclusive: 56.2 µM [inhibitor, partial curve, poor fit] | –
51 | NC1CCCCN(C(=O)CCN2CCc3ccccc32)C1 (stereo not drawn) | – | inconclusive: 39.8 µM [inhibitor, single point] | –
52 | O=C1Nc2ccccc2NC12CCN(Cc1c(F)cccc1Cl)CC2 | – | inconclusive: 5.01 µM [inhibitor, single point] | –
53 | CCN(C(=O)c1cccc(F)c1F)[C@@H]1CCN(c2ncccc2C#N)C[C@H]1O | – | inconclusive: 39.8 µM [inhibitor, single point] | –
54 | Fc1ccc(CN(C2=NCCN2)c2c(Cl)cccc2Cl)cc1 | – | inconclusive: 3.55 µM [inhibitor, single point] | –
55 | CN(C)C[C@@H]1CN(C2CCOCC2)C[C@H]1NC(=O)c1cn(C)cn1 | – | – | inactive
56 | O=C1CC2(CCN(C(=O)C3CCN(C(=O)c4ccc(F)cc4)CC3)CC2)Oc2ccccc2N1 | – | – | inactive
57 | O=C(NCC1CCN(c2cc(-c3ccc(F)cc3)[nH]n2)CC1)c1ccc2nc[nH]c2c1 | – | inconclusive: 15.8 µM [inhibitor, partial curve] | –
58 | O=C(Nc1cnc(-c2ccc(C(F)(F)F)cc2)nc1)C1CCOC1 (stereo not drawn) | – | – | inactive
59 | Cc1nn(CC(=O)NCc2ccccc2)c(=O)c2nc(C(C)C)sc12 | – | inconclusive: 1.78 µM [inhibitor, partial curve, poor fit] | –
60 | O=C(c1ccc(F)cc1)N1CCn2c(nn(-c3ccc([N+](=O)[O-])cc3)c2=O)C1 | – | inconclusive: 5.01 µM [inhibitor, single point] | –
61 | O=C(NCc1ccc(C(F)(F)F)cc1)C1CCCN1c1nccc(Nc2ccccc2F)n1 (stereo not drawn) | inactive: 4.1% | – | –
62 | Cc1cc(C)cc(NC(=O)N2CC(C(=O)N(C)C)C3(CCOCC3)C2)c1 (stereo not drawn) | – | inconclusive: 39.8 µM [inhibitor, single point] | –
63 | CN1CCN(c2ccc3ncc(Nc4cccc(C(F)(F)F)c4)n3n2)CC1 | – | inconclusive: 3.16 µM [inhibitor, partial curve, poor fit] | –
64 | CN1C(=O)N(C)C2(CCN(Cc3cc(F)ccc3F)C2)C1=O (stereo not drawn) | inactive: -8.85% | – | –
65 | CCCn1c(C)c(CC(=O)NC(C)Cn2cccn2)c2c1CC(C)(C)CC2=O (stereo not drawn) | – | inconclusive: 25.1 µM [inhibitor, partial curve, poor fit] | –
66 | CCOC(=O)C1(Cc2cccc(OC)c2)CCCN(C(=O)CCn2ccnc2C)C1 (stereo not drawn) | – | inconclusive: 39.8 µM [inhibitor, single point] | –
67 | CNC(=O)CCn1ncc2cc(OCc3ccccc3-c3cccc(O)c3)ccc21 | – | – | inactive [at 88.5 µM]
68 | O=c1[nH]c(C2CCCN([S+](=O)([O-])c3cccc(C(F)(F)F)c3)C2)nn1-c1ccccc1 (stereo not drawn) | – | inconclusive: 31.6 µM [inhibitor, single point] | –
